# From patent publication US9320760B2, “Compositions and methods of use of compounds to increase cancer patient survival time” (BioNumerik Pharmaceuticals, Inc., priority 2008, dated 2016)
# Target: T1, Thioredoxin Reductase + Thioredoxin (Bos taurus, UniProt O97680)
# T1 sequence (O97680 1-105): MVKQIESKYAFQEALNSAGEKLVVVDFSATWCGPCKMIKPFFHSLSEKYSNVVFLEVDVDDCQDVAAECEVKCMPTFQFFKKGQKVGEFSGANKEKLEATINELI
# Experiment: NADPH oxidation at 340 nm, coupled thioredoxin (TX)/thioredoxin reductase (TXR)/NADPH system
# Type: biochemical, bovine
# Conditions: result in words
# Experimental: Biochemistry 21:6628-6633 (1982).
# Data was then collected and plotted in Microsoft Excel. Error calculations, and graphical representations were performed in Microsoft Excel and Kaleidograph (ver. 3.5). Nonlinear data was graphically rendered using Kaleidograph. ANOVA and other statistical analyses were performed using SAS (ver. 8.2). Unless otherwise noted, significance level was set at 0.05, and error bars represent actual experimental standard deviation.
# It should be noted that for the purposes of FIG. 17 only, thioredoxin is labeled TXR and thioredoxin reductase is labeled TRR.
# Table 4, below, illustrates that various Formula (I) compounds (i.e., disulfide-containing compounds) of the present invention can serve as alternate substrate inhibitors for the coupled thioredoxin (TX)/thioredoxin reductase (TXR)/NADPH system as measured by the oxidation of NADPH. In Table 4, the Formula (I) compounds were utilized at a concentration of 0.5 mM.
row,SMILES,substrate (alternative substrate inhibitor) for thioredoxin / the coupled thioredoxin/thioredoxin reductase/NADPH system
1,NC(CCSSCCS(=O)(=O)O)C(=O)O (centres unmarked) [BNP7768],substrates
2,N[C@@H](CSSCCS(=O)(=O)O)C(=O)NCC(=O)O [BNP7776],substrates
3,NC(CSSCCS(=O)(=O)O)C(=O)O (centres unmarked) [BNP7766],substrates
4,NC(CCC(=O)NC(CSSCCS(=O)(=O)O)C(=O)O)C(=O)O (centres unmarked) [BNP7774],substrates
5,N[C@@H](CCC(=O)N[C@@H](CSSCCS(=O)(=O)O)C(=O)NCC(=O)O)C(=O)O [BNP7772],substrates
